# Measured values taken from patent US5391540A, “Substituted pyridine compounds” (Rohm and Haas Company, priority 1993, dated 1995).
# At least one read-out could not be matched to a standard name with certainty. Some compounds share one range, which may span the group rather than tell each member.
# How the values were obtained:
# Experiment in all cases: Post-emergence herbicidal activity (Table C)
# Assay type in all cases: in vivo
# Canada thistle = conditions: Cath, 11.2 kg/ha, 10-14 days
# Cocklebur = conditions: Cobu, 11.2 kg/ha, 10-14 days
# Downy Brome = conditions: Dobr, 11.2 kg/ha, 10-14 days
# Morningglory = conditions: Mogl, 11.2 kg/ha, 10-14 days
# Pennsylvania Smartweed = conditions: Pesw, 11.2 kg/ha, 10-14 days
# Quackgrass = conditions: Rhqg, 11.2 kg/ha, 10-14 days
# Rhizome Johnsongrass = conditions: Rhjg, 11.2 kg/ha, 10-14 days
# Velvetleaf = conditions: Vele, 11.2 kg/ha, 10-14 days
# Yellow Nutsedge = conditions: Yens, 11.2 kg/ha, 10-14 days
# Barnyardgrass = conditions: Bygr, 11.2 kg/ha, 10-14 days
# Common Lambsquarters = conditions: Colq, 11.2 kg/ha, 10-14 days
SMILES,post-emergent herbicidal activity index (Canada thistle),post-emergent herbicidal activity index (Cocklebur),post-emergent herbicidal activity index (Downy Brome),post-emergent herbicidal activity index (Morningglory),post-emergent herbicidal activity index (Pennsylvania Smartweed),post-emergent herbicidal activity index (Quackgrass),post-emergent herbicidal activity index (Rhizome Johnsongrass),post-emergent herbicidal activity index (Velvetleaf),post-emergent herbicidal activity index (Yellow Nutsedge),post-emergent herbicidal activity index (Barnyardgrass),post-emergent herbicidal activity index (Common Lambsquarters)
"COC(=O)c1c(OC)nc(C(F)(F)F)c(C(=O)N2CCCCCC2)c1CC(C)C [Compound 73, 3-pyridinecarboxylic acid, 5-[(hexahydro-1H-azepin-1-yl)carbonyl]-2-methoxy-4-(2-methylpropyl)-6-(trifluoromethyl)-, methyl ester]",0 (0-24% inhibition),0 (0-24% inhibition),0 (0-24% inhibition),0 (0-24% inhibition),0 (0-24% inhibition),0 (0-24% inhibition),0 (0-24% inhibition),0 (0-24% inhibition),0 (0-24% inhibition),0 (0-24% inhibition),0 (0-24% inhibition)
"COC(=O)c1c(C(F)(F)F)nc(OC)c(C(=O)n2cccn2)c1CC(C)C [Compound 24, 3-pyridinecarboxylic acid, 6-methoxy-4-(2-methylpropyl)-5-(1H-pyrazo1-1-ylcarbonyl)-2-(trifluoromethyl)-, methyl ester, hydrate (1:0.3)]",0 (0-24% inhibition),0 (0-24% inhibition),0 (0-24% inhibition),0 (0-24% inhibition),0 (0-24% inhibition),0 (0-24% inhibition),0 (0-24% inhibition),0 (0-24% inhibition),0 (0-24% inhibition),0 (0-24% inhibition),1 (25-49% inhibition)
"CCOC(=O)c1c(C(F)(F)C(F)(F)F)nc(OC)c(C(=O)OC)c1CC(C)C [Compound 11, 3,5-pyridinedicarboxylic acid, 2-methoxy-4-(2-methylpropyl)-6-(pentafluoroethyl)-, 5-ethyl 3-methyl ester]",0 (0-24% inhibition),0 (0-24% inhibition),0 (0-24% inhibition),0 (0-24% inhibition),0 (0-24% inhibition),0 (0-24% inhibition),0 (0-24% inhibition),0 (0-24% inhibition),0 (0-24% inhibition),0 (0-24% inhibition),0 (0-24% inhibition)
"COC(=O)c1c(C(F)(F)F)nc(OC)c(C(=O)SC)c1CC(C)C [Compound 33, 3-pyridinecarboxylic acid, 6-methoxy-4-(2-methylpropyl)-5-[(methylthio)carbonyl]-2-(trifluoromethyl)-, methyl ester]",0 (0-24% inhibition),0 (0-24% inhibition),0 (0-24% inhibition),0 (0-24% inhibition),0 (0-24% inhibition),0 (0-24% inhibition),0 (0-24% inhibition),0 (0-24% inhibition),0 (0-24% inhibition),0 (0-24% inhibition),0 (0-24% inhibition)
"COC(=O)c1c(OC)nc(C(F)(F)F)c(C(=O)OC)c1CC1CC1 [Compound 92, 3,5-pyridinedicarboxylic acid, 4-(cyclopropylmethyl)-2-methoxy-6-(trifluoromethyl)-, dimethyl ester]",0 (0-24% inhibition),0 (0-24% inhibition),0 (0-24% inhibition),2 (50-74% inhibition),0 (0-24% inhibition),0 (0-24% inhibition),0 (0-24% inhibition),1 (25-49% inhibition),0 (0-24% inhibition),1 (25-49% inhibition),3 (75-99% inhibition)
"CCCc1c(C(=O)OC)c(OC)nc(C(F)(F)F)c1C(=O)OC [Compound 91, 3,5-pyridinedicarboxylic acid, 2-methoxy-4-propy1-6-(trifluoromethyl)-, dimethyl ester]",0 (0-24% inhibition),0 (0-24% inhibition),0 (0-24% inhibition),1 (25-49% inhibition),0 (0-24% inhibition),0 (0-24% inhibition),0 (0-24% inhibition),0 (0-24% inhibition),0 (0-24% inhibition),0 (0-24% inhibition),3 (75-99% inhibition)
"CCOC(=O)c1c(C(F)(F)F)nc(OC)c(C(=O)OC)c1CC(C)C [Compound 44, 3,5-pyridinedicarboxylic acid, 2-methoxy-4-(2-methylpropyl)-6-(trifluoromethyl)-, 5-ethyl 3-methyl ester]",0 (0-24% inhibition),0 (0-24% inhibition),0 (0-24% inhibition),0 (0-24% inhibition),0 (0-24% inhibition),0 (0-24% inhibition),0 (0-24% inhibition),0 (0-24% inhibition),0 (0-24% inhibition),0 (0-24% inhibition),0 (0-24% inhibition)
"CCOc1nc(C(F)(F)F)c(C(=O)n2cccn2)c(CC(C)C)c1C(=O)OC [Compound 49, 3-pyridinecarboxylic acid, 2-ethoxy-4-(2-methylpropyl)-5-(1H-pyrazo1-1-ylcarbonyl)-6-(trifluoromethyl)-, methyl ester]",0 (0-24% inhibition),0 (0-24% inhibition),0 (0-24% inhibition),0 (0-24% inhibition),0 (0-24% inhibition),0 (0-24% inhibition),0 (0-24% inhibition),0 (0-24% inhibition),0 (0-24% inhibition),0 (0-24% inhibition),0 (0-24% inhibition)
"COC(=O)c1c(OC)nc(C(F)(F)F)c(C(=O)n2cncn2)c1CC(C)C [Compound 60, 3-pyridinecarboxylic acid, 2-methoxy-4-(2-methylpropyl)-5-(1H-1,2,4-triazo1-1-ylcarbonyl)-6-(trifluoromethyl)-, methyl ester]",0 (0-24% inhibition),0 (0-24% inhibition),0 (0-24% inhibition),0 (0-24% inhibition),0 (0-24% inhibition),0 (0-24% inhibition),0 (0-24% inhibition),0 (0-24% inhibition),0 (0-24% inhibition),0 (0-24% inhibition),0 (0-24% inhibition)
"COc1nc(C(F)(F)F)c(C(=O)SC)c(CC(C)C)c1C(=O)SC [Compound 47, 3,5-pyridinedicarbothioic acid, 2-methoxy-4-(2-methylpropyl)-6-(trifluoromethyl)-, S,S,-dimethyl ester]",0 (0-24% inhibition),0 (0-24% inhibition),0 (0-24% inhibition),0 (0-24% inhibition),0 (0-24% inhibition),0 (0-24% inhibition),0 (0-24% inhibition),1 (25-49% inhibition),0 (0-24% inhibition),0 (0-24% inhibition),1 (25-49% inhibition)
